# Laboratory results taken from the supplement of paper PMC10037445.
# Over roughly 2,900 compounds, “NF-kB SEAP reporter activity, fold change vs agonist alone” has its median near 0.99; the highest 2% begin near 2.6. Some of the results follow.
# Assays:
# RAW-Dual [1] = experiment: NF-kB SEAP reporter activity, fold change vs agonist alone; cytotoxicity flag (confluency mask): not cytotoxic; higher = enhanced NF-kB activity
# In short: (§1)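 Reporter activity is given as fold change relative to agonist-alone wells. To measure it, 50 nL of library stock was pin-tooled onto RAW-Dual macrophages (50,000 cells/well, DMEM, 384-well plates), a PRR agonist followed 1 h later, and cells stayed at 37 °C, 5% CO2. Twenty hours on, supernatant was assayed for IRF (QuantiLuc luminescence) and NF-κB (QuantiBlue, 620 nm absorbance), and wells under 70% of agonist-control IncuCyte confluency in both mask sets were marked cytotoxic.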
# RAW-Dual [2] = experiment: NF-kB SEAP reporter activity, fold change vs agonist alone; higher = enhanced NF-kB activity
# In short: as §1
# RAW-Dual [3] = experiment: NF-kB SEAP reporter activity, fold change vs agonist alone; cytotoxicity flag (confluency mask): cytotoxic (confluency <70% of control); higher = enhanced NF-kB activity
# In short: as §1
# [4] = agonist: ODN 1826 (TLR9) 0.5 ug/mL
# [5] = agonist: Pam2CSK4 (TLR2/6) 0.1 ug/mL
# [6] = agonist: Pam3CSK4 (TLR2/1) 0.1 ug/mL
# [7] = library stock concentration (final ~1000-fold dilution): 10 mM, cytotoxicity flag (confluency mask): not cytotoxic, agonist: Imiquimod (TLR7) […]
# [8] = library stock concentration (final ~1000-fold dilution): 10 mM, cytotoxicity flag (confluency mask): not cytotoxic, agonist: MPLA (TLR4) […]
smiles,measurement,setting,value
NC(=O)c1ccc2[nH]c(-c3ccc(Oc4ccc(Cl)cc4)cc3)nc2c1 (library stock concentration (final ~1000-fold dilution): 10 mM),NF-kB SEAP reporter activity,RAW-Dual [1]; agonist: LPS (TLR4) 0.1 ug/mL,1.71
same,NF-kB SEAP reporter activity,RAW-Dual [1]; [4],1.59
same,NF-kB SEAP reporter activity,RAW-Dual [1]; [5],2.1
same,NF-kB SEAP reporter activity,RAW-Dual [1]; [6],3.55
NC(=O)c1ccc2[nH]c(-c3ccc(Oc4ccc(Cl)cc4)cc3)nc2c1,NF-kB SEAP reporter activity,RAW-Dual [2]; [7],1.47
same,NF-kB SEAP reporter activity,RAW-Dual [2]; [8],2.09
CC(=O)O.NCc1ccc(S(N)(=O)=O)cc1,NF-kB SEAP reporter activity,RAW-Dual [2]; [7],1.17
same,NF-kB SEAP reporter activity,RAW-Dual [2]; [8],1.03
CC(=O)O.NCc1ccc(S(N)(=O)=O)cc1 (library stock concentration (final ~1000-fold dilution): 10 mM),NF-kB SEAP reporter activity,RAW-Dual [1]; agonist: LPS (TLR4) 0.1 ug/mL,1.04
same,NF-kB SEAP reporter activity,RAW-Dual [1]; [4],1.01
same,NF-kB SEAP reporter activity,RAW-Dual [1]; [5],0.927
same,NF-kB SEAP reporter activity,RAW-Dual [1]; [6],1.23
NC(=O)c1cccc2cn(-c3ccc(C4CCCNC4)cc3)nc12 (centres undefined) (library stock concentration (final ~1000-fold dilution): 10 mM),NF-kB SEAP reporter activity,RAW-Dual [1]; agonist: LPS (TLR4) 0.1 ug/mL,1.04
same,NF-kB SEAP reporter activity,RAW-Dual [1]; [4],0.192
same,NF-kB SEAP reporter activity,RAW-Dual [1]; [5],1.07
same,NF-kB SEAP reporter activity,RAW-Dual [1]; [6],1.12
NC(=O)c1cccc2cn(-c3ccc(C4CCCNC4)cc3)nc12 (centres undefined),NF-kB SEAP reporter activity,RAW-Dual [2]; [7],0.768
same,NF-kB SEAP reporter activity,RAW-Dual [2]; [8],0.991
COc1ccc(CCCOC(Cn2ccnc2)c2ccc(OC)cc2)cc1.Cl (centres undefined) (library stock concentration (final ~1000-fold dilution): 10 mM),NF-kB SEAP reporter activity,RAW-Dual [1]; agonist: LPS (TLR4) 0.1 ug/mL,0.82
same,NF-kB SEAP reporter activity,RAW-Dual [1]; [4],0.588
same,NF-kB SEAP reporter activity,RAW-Dual [1]; [5],0.572
same,NF-kB SEAP reporter activity,RAW-Dual [1]; [6],0.84
COc1ccc(CCCOC(Cn2ccnc2)c2ccc(OC)cc2)cc1.Cl (centres undefined),NF-kB SEAP reporter activity,RAW-Dual [2]; [7],0.901
same,NF-kB SEAP reporter activity,RAW-Dual [2]; [8],1.28
O=C(/C=C/c1ccc(O)cc1)c1ccccc1 (library stock concentration (final ~1000-fold dilution): 10 mM),NF-kB SEAP reporter activity,RAW-Dual [3]; agonist: LPS (TLR4) 0.1 ug/mL,0.377
same,NF-kB SEAP reporter activity,RAW-Dual [3]; [4],0.42
same,NF-kB SEAP reporter activity,RAW-Dual [3]; [5],0.469
same,NF-kB SEAP reporter activity,RAW-Dual [3]; [6],0.612
O=C(/C=C/c1ccc(O)cc1)c1ccccc1,NF-kB SEAP reporter activity,"RAW-Dual [2]; library stock concentration (final ~1000-fold dilution): 10 mM, cytotoxicity flag (confluency mask): cytotoxic (confluency <70% of control), agonist: Imiquimod (TLR7) […]",0.709
same,NF-kB SEAP reporter activity,"RAW-Dual [2]; library stock concentration (final ~1000-fold dilution): 10 mM, cytotoxicity flag (confluency mask): cytotoxic (confluency <70% of control), agonist: MPLA (TLR4) […]",0.589
CC(C)(C)NC(=O)c1cncn1C1CCN(c2ccc(-c3nnc(C(F)(F)F)o3)cn2)CC1 (library stock concentration (final ~1000-fold dilution): 10 mM),NF-kB SEAP reporter activity,RAW-Dual [1]; agonist: LPS (TLR4) 0.1 ug/mL,6.27
same,NF-kB SEAP reporter activity,RAW-Dual [1]; [4],3.15
same,NF-kB SEAP reporter activity,RAW-Dual [1]; [6],2.84
O=c1ncnc2[nH][nH]cc1-2,NF-kB SEAP reporter activity,RAW-Dual [2]; [7],0.925
same,NF-kB SEAP reporter activity,RAW-Dual [2]; [8],1.08
O=c1ncnc2[nH][nH]cc1-2 (library stock concentration (final ~1000-fold dilution): 10 mM),NF-kB SEAP reporter activity,RAW-Dual [1]; agonist: LPS (TLR4) 0.1 ug/mL,0.941
same,NF-kB SEAP reporter activity,RAW-Dual [1]; [4],1.03
same,NF-kB SEAP reporter activity,RAW-Dual [1]; [5],1.06
same,NF-kB SEAP reporter activity,RAW-Dual [1]; [6],1.16
CC(C)NCCCn1c(Sc2cc3c(cc2I)OCO3)nc2c(N)ncnc21,NF-kB SEAP reporter activity,RAW-Dual [2]; [7],0.153
same,NF-kB SEAP reporter activity,RAW-Dual [2]; [8],0.524
CC(C)NCCCn1c(Sc2cc3c(cc2I)OCO3)nc2c(N)ncnc21 (library stock concentration (final ~1000-fold dilution): 10 mM),NF-kB SEAP reporter activity,RAW-Dual [1]; agonist: LPS (TLR4) 0.1 ug/mL,0.4
same,NF-kB SEAP reporter activity,RAW-Dual [1]; [4],0.189
same,NF-kB SEAP reporter activity,RAW-Dual [1]; [5],0.077
same,NF-kB SEAP reporter activity,RAW-Dual [1]; [6],0.152
Cc1cccc(Nc2nc(-c3ccncc3)cs2)c1 (library stock concentration (final ~1000-fold dilution): 10 mM),NF-kB SEAP reporter activity,RAW-Dual [1]; agonist: LPS (TLR4) 0.1 ug/mL,2.85
same,NF-kB SEAP reporter activity,RAW-Dual [1]; [4],1.3
same,NF-kB SEAP reporter activity,RAW-Dual [1]; [5],0.662
same,NF-kB SEAP reporter activity,RAW-Dual [1]; [6],1
Cc1cccc(Nc2nc(-c3ccncc3)cs2)c1,NF-kB SEAP reporter activity,RAW-Dual [2]; [7],1.89
same,NF-kB SEAP reporter activity,RAW-Dual [2]; [8],2.08
C=C(C)CSc1nnc2c(n1)[nH]c1ccccc12 (library stock concentration (final ~1000-fold dilution): 10 mM),NF-kB SEAP reporter activity,RAW-Dual [1]; agonist: LPS (TLR4) 0.1 ug/mL,1.53
same,NF-kB SEAP reporter activity,RAW-Dual [1]; [4],0.828
same,NF-kB SEAP reporter activity,RAW-Dual [1]; [5],0.957
same,NF-kB SEAP reporter activity,RAW-Dual [1]; [6],1.14
C=C(C)CSc1nnc2c(n1)[nH]c1ccccc12,NF-kB SEAP reporter activity,RAW-Dual [2]; [7],0.751
same,NF-kB SEAP reporter activity,RAW-Dual [2]; [8],1.01
CC1(C)CC(=O)c2c(C(F)(F)F)nn(-c3ccc(C(N)=O)c(NC4CCC(O)CC4)c3)c2C1 (centres undefined),NF-kB SEAP reporter activity,RAW-Dual [2]; [7],0.988
same,NF-kB SEAP reporter activity,RAW-Dual [2]; [8],0.65
CC1(C)CC(=O)c2c(C(F)(F)F)nn(-c3ccc(C(N)=O)c(NC4CCC(O)CC4)c3)c2C1 (centres undefined) (library stock concentration (final ~1000-fold dilution): 10 mM),NF-kB SEAP reporter activity,RAW-Dual [1]; agonist: LPS (TLR4) 0.1 ug/mL,0.21
same,NF-kB SEAP reporter activity,RAW-Dual [1]; [4],0.898
same,NF-kB SEAP reporter activity,RAW-Dual [1]; [5],0.0968
same,NF-kB SEAP reporter activity,RAW-Dual [1]; [6],0.392
Cc1ccc(NC(=S)NNc2c([N+](=O)[O-])cc(C(F)(F)F)cc2[N+](=O)[O-])cc1Cl (library stock concentration (final ~1000-fold dilution): 10 mM),NF-kB SEAP reporter activity,RAW-Dual [1]; agonist: LPS (TLR4) 0.1 ug/mL,0.48
same,NF-kB SEAP reporter activity,RAW-Dual [1]; [4],0.459
same,NF-kB SEAP reporter activity,RAW-Dual [1]; [5],0.311
same,NF-kB SEAP reporter activity,RAW-Dual [1]; [6],0.371
Cc1ccc(NC(=S)NNc2c([N+](=O)[O-])cc(C(F)(F)F)cc2[N+](=O)[O-])cc1Cl,NF-kB SEAP reporter activity,RAW-Dual [2]; [7],0.763
same,NF-kB SEAP reporter activity,RAW-Dual [2]; [8],1.12
COc1c(O)cc(O)c2c(=O)cc(-c3ccccc3)oc12,NF-kB SEAP reporter activity,RAW-Dual [2]; [8],1.34
COc1c(O)cc(O)c2c(=O)cc(-c3ccccc3)oc12 (library stock concentration (final ~1000-fold dilution): 10 mM),NF-kB SEAP reporter activity,RAW-Dual [1]; agonist: LPS (TLR4) 0.1 ug/mL,1.37
same,NF-kB SEAP reporter activity,RAW-Dual [1]; [4],1.3
same,NF-kB SEAP reporter activity,RAW-Dual [1]; [5],1.4
same,NF-kB SEAP reporter activity,RAW-Dual [1]; [6],1.1
Nc1ccc(S(N)(=O)=O)cc1,NF-kB SEAP reporter activity,RAW-Dual [2]; [7],0.983
same,NF-kB SEAP reporter activity,RAW-Dual [2]; [8],1.05
Nc1ccc(S(N)(=O)=O)cc1 (library stock concentration (final ~1000-fold dilution): 10 mM),NF-kB SEAP reporter activity,RAW-Dual [1]; agonist: LPS (TLR4) 0.1 ug/mL,0.899
same,NF-kB SEAP reporter activity,RAW-Dual [1]; [4],1.01
same,NF-kB SEAP reporter activity,RAW-Dual [1]; [5],1.01
same,NF-kB SEAP reporter activity,RAW-Dual [1]; [6],1.17
Cc1c(-c2ccc(C(N)=O)c3[nH]c4cc(C(C)(C)O)ccc4c23)cccc1-n1cnc2ccccc2c1=O,NF-kB SEAP reporter activity,RAW-Dual [2]; [7],1.76
same,NF-kB SEAP reporter activity,RAW-Dual [2]; [8],1.37
Cc1c(-c2ccc(C(N)=O)c3[nH]c4cc(C(C)(C)O)ccc4c23)cccc1-n1cnc2ccccc2c1=O (library stock concentration (final ~1000-fold dilution): 10 mM),NF-kB SEAP reporter activity,RAW-Dual [1]; agonist: LPS (TLR4) 0.1 ug/mL,1.25
same,NF-kB SEAP reporter activity,RAW-Dual [1]; [4],1.1
same,NF-kB SEAP reporter activity,RAW-Dual [1]; [5],0.537
same,NF-kB SEAP reporter activity,RAW-Dual [1]; [6],0.833
O=C(CCN1CCN(C(=O)OCc2cc(Cl)cc(Cl)c2)CC1)c1ccc2[nH]c(=O)oc2c1 (library stock concentration (final ~1000-fold dilution): 10 mM),NF-kB SEAP reporter activity,RAW-Dual [1]; agonist: LPS (TLR4) 0.1 ug/mL,0.787
same,NF-kB SEAP reporter activity,RAW-Dual [1]; [4],0.492
same,NF-kB SEAP reporter activity,RAW-Dual [1]; [5],0.442
same,NF-kB SEAP reporter activity,RAW-Dual [1]; [6],0.291
O=C(CCN1CCN(C(=O)OCc2cc(Cl)cc(Cl)c2)CC1)c1ccc2[nH]c(=O)oc2c1,NF-kB SEAP reporter activity,RAW-Dual [2]; [7],0.98
same,NF-kB SEAP reporter activity,RAW-Dual [2]; [8],0.843
COc1ccc(-c2oc3c(CC=C(C)C)c(O)cc(O)c3c(=O)c2O)cc1 (library stock concentration (final ~1000-fold dilution): 10 mM),NF-kB SEAP reporter activity,RAW-Dual [1]; agonist: LPS (TLR4) 0.1 ug/mL,1.46
same,NF-kB SEAP reporter activity,RAW-Dual [1]; [4],0.962
same,NF-kB SEAP reporter activity,RAW-Dual [1]; [5],1.06
same,NF-kB SEAP reporter activity,RAW-Dual [1]; [6],1.39
COc1ccc(-c2oc3c(CC=C(C)C)c(O)cc(O)c3c(=O)c2O)cc1,NF-kB SEAP reporter activity,RAW-Dual [2]; [7],0.959
same,NF-kB SEAP reporter activity,RAW-Dual [2]; [8],1.22
CCCCNc1ncc(-c2ccc(CN3CCOCC3)cn2)c(NC2CCC(O)CC2)n1 (centres undefined),NF-kB SEAP reporter activity,"RAW-Dual [2]; library stock concentration (final ~1000-fold dilution): 2 mM, cytotoxicity flag (confluency mask): not cytotoxic, agonist: Imiquimod (TLR7) […]",0.899
same,NF-kB SEAP reporter activity,"RAW-Dual [2]; library stock concentration (final ~1000-fold dilution): 2 mM, cytotoxicity flag (confluency mask): not cytotoxic, agonist: MPLA (TLR4) […]",0.926
CCCCNc1ncc(-c2ccc(CN3CCOCC3)cn2)c(NC2CCC(O)CC2)n1 (centres undefined) (library stock concentration (final ~1000-fold dilution): 2 mM),NF-kB SEAP reporter activity,RAW-Dual [1]; agonist: LPS (TLR4) 0.1 ug/mL,0.765
same,NF-kB SEAP reporter activity,RAW-Dual [1]; [4],0.788
same,NF-kB SEAP reporter activity,RAW-Dual [1]; [5],0.814
same,NF-kB SEAP reporter activity,RAW-Dual [1]; [6],0.886
